Laboratory results reported in the supplement of paper PMC4466236.
The full ranking holds about 33,000 sequences; the median of “E-score (dimensionless, -0.5 to 0.5)” is about -0.058, and the highest 2% start at about 0.35. This is one part of the list.

test system: MvaT; experiment: PBM 8-mer E-score (mean of HK and ME arrays) (E-score (dimensionless, -0.5 to 0.5)); higher = stronger relative binding preference; most listed sequences are background and not binding sites
Procedure, shortened: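 Full-length P. aeruginosa MvaT, with glutathione S-transferase fused to its N-terminus (cloned into pTH6838 by isothermal assembly), was tested by protein binding microarray using a previously described protocol. Two universal double-stranded 60-mer arrays (ME and HK) were used, each with a constant 25-mer primer region and a variable 35-mer region covering all 8-mers. The rank-based 8-mer E-score (-0.5 to 0.5) is the mean of the two arrays, parsed with a custom Python script.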

In order of falling “PBM 8-mer E-score” value:
1. TATTTTAA  0.41
2. GTAACTTA  0.37
3. AAAATAAG  0.331
4. CGCAACAA  0.297
5. ATATGAAT  0.288
6. AAAACAAC  0.282
7. CAAAGTTA  0.265
8. ACATTTCT  0.265
9. AGTGTTTG  0.258
10. ATAGTACA  0.247
11. ATCTTAAT  0.232
12. GTATAAAA  0.216
13. TTACACAA  0.212
14. CTGGATTA  0.212
15. AACGCAAT  0.207
16. ATTACGAA  0.206
17. AGTTCTAT  0.194
18. ACAACATG  0.184
19. TAAATCTA  0.183
20. GCTTAGAA  0.181
21. ATTTCCAG  0.181
22. ACATTTAG  0.177
23. ATTTACGA  0.167
24. ATACTCGA  0.162
25. TGTTAGAA  0.16
26. ATGAACTA  0.152
27. ACCAACTA  0.14
28. AGTAAGTG  0.135
29. CGCGCGCG  0.133
30. TCCGAACA  0.127
31. CAAAATCA  0.127
32. ACTTGCGC  0.123
33. AGGGCAAC  0.114
34. AATAGAGC  0.107
35. ACACCTAT  0.106
36. GACACACA  0.101
37. AGCAACTA  0.0916
38. ATACGTGA  0.0838
39. CTGGTTAC  0.0697
40. GCTTCTAA  0.0601
41. CCCTTAAA  0.0558
42. TCGTTACA  0.0528
43. ATGTCTAG  0.0376
44. AACACCTA  0.0374
45. AGACGTAC  0.0372
46. ACCCTTAA  0.035
47. GATACCTA  0.031
48. ACGCAAAC  0.026
49. CCTTAGTC  0.026
50. TCCAGTAA  0.0231
51. CTAAGAAA  0.017
52. TCTTAGCA  0.0165
53. TACTAGCA  0.0141
54. GATAGGTA  0.0113
55. AACGGCCG  0.00384
56. ATGACTTA  0.00279
57. GTGAACAC  0.00148
58. TCGATCGA  0.000441
59. GTCTTGGA  -0.00209
60. CCCGTTAG  -0.00293
61. CGTTTCTA  -0.00644
62. AACCTCTC  -0.0112
63. CCCATATC  -0.0129
64. TCCGCTAA  -0.0171
65. TCGTTAGA  -0.0242
66. TCTCAAGA  -0.0252
67. AAGAGTAC  -0.0268
68. CATCCCGA  -0.0328
69. CACGCAAC  -0.034
70. CGATACTC  -0.0359
71. ACGAATCG  -0.0371
72. ACATGGGC  -0.0383
73. ACGTCTTC  -0.0415
74. AATCCATC  -0.0434
75. CGAACGCA  -0.0442
76. ACGAGTGA  -0.0472
77. CTGTAGCA  -0.0514
78. CACTCAAG  -0.0585
79. TCGCTGCA  -0.0624
80. ATTTGGGG  -0.0637
81. ATTGCTTC  -0.0649
82. CCGCCAGA  -0.0664
83. ATCATGAG  -0.0671
84. CGGTTGCA  -0.0698
85. CGCGCGAC  -0.072
86. CGGCATAG  -0.079
87. CACATAGG  -0.0828
88. CCATTCTC  -0.0842
89. CGCGTTAG  -0.087
90. CTGTTGGC  -0.0873
91. ATCGCGGC  -0.0882
92. ACACGCAC  -0.0903
93. AGCTACAC  -0.0931
94. AATCCTGG  -0.0944
95. AACGTAGC  -0.0969
96. ACCCCAGC  -0.103
97. AAGCATCA  -0.105
98. CACGGAAG  -0.108
99. ACACTGTG  -0.11
100. CCACCTAG  -0.113
101. CGTACCAC  -0.115
102. TAGGCAGA  -0.116
103. CATCATCG  -0.118
104. AACCGGCA  -0.118
105. AGCTGCAC  -0.122
106. ATCTGACC  -0.125
107. AGTGACCA  -0.126
108. ACTACCCT  -0.128
109. CTGTAGAC  -0.132
110. CCCATGCC  -0.133
111. CGCCGTCA  -0.138
112. CCTCGGTA  -0.139
113. ACGGTCAC  -0.141
114. AGGTGCTA  -0.145
115. GAGCGCGA  -0.147
116. AAAGGGGA  -0.151
117. CTTCTCGC  -0.152
118. GATGGTGC  -0.153
119. CCGCGCCC  -0.155
120. GGTAGGGA  -0.155
121. GATACAGA  -0.156
122. TCCGGAGA  -0.156
123. CGGTGTAG  -0.157
124. TCGGCCCA  -0.157
125. CGAGGTCA  -0.161
126. ATCCGCCC  -0.162
127. CCCACGAA  -0.163
128. ACCACTTC  -0.167
129. ACGCCACG  -0.168
130. GCGCCTCA  -0.168
131. CCCAGCCA  -0.172
132. CAGGTTGA  -0.174
133. CGGAGCCG  -0.18
134. CGCCGTGC  -0.185
135. CTTAGGAC  -0.185
136. AGCGTGAA  -0.185
137. AGGGAAGG  -0.191
138. ATGCGGAG  -0.193
139. AAGACCGC  -0.193
140. CCATGCAG  -0.193
141. GAGTGATC  -0.195
142. ACCCTTCT  -0.195
143. CCCGACAG  -0.197
144. GGCTCGGA  -0.2
145. CGGCTGAC  -0.201
146. ATTTCGCC  -0.201
147. CAGCAGCC  -0.202
148. AAGGCCGG  -0.208
149. CGTATGGC  -0.21
150. AGCTGCGC  -0.214
151. GCTCGCGA  -0.215
152. GCTGGGCA  -0.217
153. GCTGCTCC  -0.222
154. GCTACCCC  -0.227
155. CAAGCGAA  -0.227
156. CGCTGTAC  -0.228
157. AGCGAACG  -0.229
158. GGCGCGAA  -0.231
159. CCTCCATC  -0.235
160. ACCTATGC  -0.24
161. AGGCCGGC  -0.26
162. AGGTCCTC  -0.26
163. CCCAGGCA  -0.262
164. GGCTGGGA  -0.264
165. GGCCCGGA  -0.27
166. GGTTTCAC  -0.273
167. GAGGCGAC  -0.276
168. CCCATCAG  -0.277
169. CAGAAGGG  -0.293
170. GCCTCTCA  -0.295
171. GCTCCCGA  -0.296
172. CCGTGAGG  -0.322
